Source: the supplement of paper PMC10338343
± gives the standard deviation. The entries are a selection whose mix differs from that of the whole data set.

Tested on: MIWI (PIWIL1) piRISC loaded with L1MC piRNA (30 nt)
Test: pre-steady-state target cleavage rate (min^-1); MIWI and MILI are mouse PIWI proteins and EfPiwi is from a freshwater sponge; tags in brackets are library labels; higher = faster piRNA-guided slicing of the target
Settings: guide: L1MC piRNA 5'p-UAACUAAAUACUAUGCAAGCUGUAGGUCCU
Outline: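 Cleave-'n-Seq used a transcribed, DNA-blocked target RNA library at 0.1 nM and active affinity-purified piRISC with one synthetic guide at 1 nM, with or without 500 nM GTSF1 partner protein, in HEPES–potassium acetate buffer at 33 °C for 0–8 or 0–960 min. Uncleaved targets were sequenced and normalised to depth and to weakly complementary targets, and three trials were pooled with k3 capped at 0.0001 min^-1. The pre-steady-state cleavage rate was estimated by a burst-and-steady-state fit.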

[1] = auxiliary factor: 500 nM mouse GTSF1
[2] = auxiliary factor: none (no GTSF1)

Row | Sequence | pre-steady-state target cleavage rate [1] | pre-steady-state target cleavage rate [2]
1 | UCCUGCUACAGCAUGCAUAGUAUUUUGUUA | 0.664 ± 0.07 | 0.00787 ± 0.0017
2 | UCCUGGAUGAGCUAGCAUAGUUUUUAGUUA | 0.0762 ± 0.012 | 0.00858 ± 0.0029
3 | UCCUGGAUGUGCUUUCAUAGUAUUUAGUUA | 0.15 ± 0.018 | 0.00697 ± 0.0029
4 | UCGACCUACAGCUUGCAUAGUAUUUUCAUA | 0.35 ± 0.043 | 0.00571 ± 0.0037
5 | UGGACCUACAGCUUGCAUAGUAGUUAGUUA | 0.821 ± 0.048 | 0.031 ± 0.0074
6 | AGGACCUACAGCUUGCUAAGUAUUUAGUUA | 0.317 ± 0.029 | 0.00438 ± 0.0022
7 | AGGACCUACAGCUUGCUUUGUAUUUAGUUA | 0.264 ± 0.025 | 0.00824 ± 0.0023
8 | UCCUGGAUCAGCUUGCAUAGUAUUUAGGUUA | 0.777 ± 0.051 | 0.0343 ± 0.0079
9 | UCCUGCUACAGCUUCAUAGUAUUUAGUUA | 0.646 ± 0.04 | 0.00968 ± 0.0021
10 | UCCUGCUACAGCUUGCAUAGUUAAUAGUUA | 0.103 ± 0.022 | 0.0103 ± 0.0022
11 | UCCUGGAUCAGCUAGCAUAGUUUUUAGUUA | 0.158 ± 0.013 | 0.0151 ± 0.0043
12 | AGGACCUUGAGCUUGCAUAGUAUUUAGUAA | 0.941 ± 0.062 | 0.0569 ± 0.015
13 | UCCUCCUACAGCUUGCAUUCUAUUUAGUAA | 0.108 ± 0.025 | 0.00223 ± 0.0022
14 | UCCUGGAUCUGCUUGCAUAGAAUUUAGUUA | 0.0558 ± 0.0098 | 0.0133 ± 0.0047
15 | UCGACGAACAGCUUGCAUAGUAUUUAGAAA | 0.553 ± 0.048 | 0.00889 ± 0.0029
16 | UCGACCUACACCUUGCAUAGUUUUUAGUUA | 0.285 ± 0.03 | 0.0191 ± 0.0038
17 | UCGACCUACAGCUUGCAUAGUCUUUAGUUA | 0.863 ± 0.03 | 0.0449 ± 0.01
18 | AGGACCUAGAGCUUGCAUAGUAUUUUGUUA | 0.825 ± 0.061 | 0.0386 ± 0.0083
19 | UCCUGGAUGUGCUAGCAUAGUUUUUAGUUA | 0.00647 ± 0.0034 | 0.00431 ± 0.0024
20 | AGGACGUAGAGCUUGCAUAGUAUUUAGUUA | 1.17 ± 0.072 | 0.047 ± 0.0083
21 | UCCACCUACAAGCUUGCAUAGUAUUUAGUUA | 0.715 ± 0.031 | 0.0426 ± 0.0076
22 | UCGACCUACAGCUUGCAUAGUAUUUAGCUA | 0.0909 ± 0.023 | 0.00811 ± 0.0027

Row | Sequence | pre-steady-state target cleavage rate [1] | pre-steady-state target cleavage rate [2]
23 | AGGAGGAACAGCUUGCAUAGUAUUUUCAAA | 0.288 ± 0.045 | 0.00367 ± 0.0022
24 | UCCUGGUAGAGCUUGCAUAGUUUUUAGUUA | 0.115 ± 0.015 | 0.024 ± 0.0058
25 | UCCUGGAUCAGUUUGCAUAGUAUUUAGUUA | 1.16 ± 0.048 | 0.0503 ± 0.0097
26 | UCGACCAUCAGCUUGCAUAGUAUUUUCAAA | 0.289 ± 0.034 | 0.00356 ± 0.0023
27 | UCGACCUACAGCUUGCAUAGUAGUUAGUUA | 0.746 ± 0.036 | 0.0262 ± 0.0058
28 | UCCUGGAUGUCCCUGCAUAGUAUUUAGUUA | 0.0135 ± 0.0046 | 0.00302 ± 0.0021
29 | UCCUGGAUGAGGUUGCAUAGUAUUUAGUAA | 0.0901 ± 0.012 | 0.00316 ± 0.0026
30 | UGGACCUUCAGCUUGCAUAGUAUUUAGAUA | 0.445 ± 0.037 | 0.0254 ± 0.0066
31 | UCCUGGAUGAGCUUGCAUACUAUUUAGUAA | 0.0528 ± 0.012 | 0.018 ± 0.0049
32 | UCCACCUACUGCUUGCAUACUAUUUAGUUA | 0.297 ± 0.026 | 0.0231 ± 0.0039
33 | UCCUCCUACAGGUUGCAUAGUAUUUUGUUA | 0.633 ± 0.054 | 0.0126 ± 0.0021
34 | UCCUCCUACAGCUUGCAUACUAUUUAGUUA | 0.37 ± 0.023 | 0.0292 ± 0.0044
35 | UCCACCAACAGCUAGCAUAGUAUUUAGUUA | 0.97 ± 0.033 | 0.0197 ± 0.0045
36 | UCCUCCUACAGGUUGCAUAGUAAUUAGUUA | 0.603 ± 0.036 | 0.0104 ± 0.0024
37 | UCCACCUAAAGCUUGCAUAGUAUUUAGUUA | 0.289 ± 0.043 | 0.0181 ± 0.0028
38 | UCCUGGAUGUGCUUGCAUAGUAUUAACUUA | 0.0107 ± 0.0052 | 0.00372 ± 0.003
39 | AGGACCUACAGCUUGCAUAGAAAUUAGUUA | 0.254 ± 0.034 | 0.00542 ± 0.0028
40 | AGCACCUACAGCUUGCUUAGUAUUUAGUUA | 0.978 ± 0.079 | 0.0389 ± 0.0089
41 | AGGUCCUACAGCUUGCAUAGUAUUAAGUUA | 0.381 ± 0.034 | 0.054 ± 0.013
42 | UCCUCCUACAGAUUGCAUAGUAUUUAGUUA | 0.915 ± 0.052 | 0.0221 ± 0.0037
43 | UCCUGGAUCAGCUUGCAUAGUUUUUAGAAA | 0.0961 ± 0.025 | 0.00604 ± 0.0031
44 | AUGGACCUACAGCUUGCAUAGUAUUUAGUUA | 1.34 ± 0.088 | 0.0872 ± 0.018

Row | Sequence | pre-steady-state target cleavage rate [1] | pre-steady-state target cleavage rate [2]
45 | UCCUCCUACAGCUUGCAUAGUAUUUAGUUG [g2:g26:cont:t1G] | 0.245 ± 0.023 | 0.0275 ± 0.0047
46 | UCCUCCUACAGCUAGCAUAGUAUUUAGUAA | 0.478 ± 0.039 | 0.00501 ± 0.0017
47 | UCCUGGAACUCGUUGCAUAGUAUUUAGUUA | 0.185 ± 0.021 | 0.00402 ± 0.0021
48 | UCCUGCUACAGCUUGCAUAGUACUUUAGUUA | 0.471 ± 0.036 | 0.00697 ± 0.0026
49 | UCCUGUUACAGCUUGCAUAGUAUUUAGUUA | 1.28 ± 0.058 | 0.0747 ± 0.013
50 | UCCUGGUACAGCUUGCAUACUAUUAAGUUA | 0.13 ± 0.031 | 0.00677 ± 0.0024
51 | AGGACCUACAGCUUGCAUAGUAUUUAGCUA | 0.352 ± 0.11 | 0.00741 ± 0.0041
52 | AGGACCUACAGCUUGCAUAGUAUUUAUUA | 0.281 ± 0.041 | 0.00551 ± 0.0029
53 | AGGACCUACUGCUUGCAUAGUUUUUAGUUA | 0.339 ± 0.017 | 0.032 ± 0.0067
54 | UCCUGGUACAGCAUGCAUAGUAUUUAGAUA | 0.317 ± 0.036 | 0.00711 ± 0.002
55 | UCGACCUACAGCUUGGAUAGUAUUUAGUAA | 0.859 ± 0.043 | 0.0299 ± 0.0054
56 | UCCUGGUACAGCUUUGCAUAGUAUUUAGUUA | 0.505 ± 0.043 | 0.0154 ± 0.0037
57 | UCGACCUACAGCUUGCAUAGUAUAUAGUAA | 0.463 ± 0.029 | 0.0147 ± 0.0039
58 | UCCUGGUACAGCUUGCAUAGUAUUAAGUUA | 0.426 ± 0.056 | 0.0151 ± 0.0034
59 | UCCUGGUACAGCUUGCAAACUAUUUAGUUA | 0.116 ± 0.019 | 0.00737 ± 0.0024
60 | UCCUGGUAGAGCUUGCAUAGUAUAUAGUUA | 0.491 ± 0.062 | 0.0144 ± 0.0047
61 | UCCUGGAACAGCAUGGAUAGUAUUUAGUUA | 1.18 ± 0.06 | 0.0192 ± 0.0045
62 | UCCUCCUACAGCUUGCAUAGUAUUUAGCUUA | 0.3 ± 0.076 | 0.00624 ± 0.0037
63 | UCCACCUACUGCUUGCAUAGUAUAUAGUUA | 0.263 ± 0.029 | 0.0203 ± 0.0038
64 | UGGACCAUCAGCUUGCAUAGUAUUUACAAA | 0.264 ± 0.032 | 0.00628 ± 0.0023
65 | UCGACCUUCAGCUUGCAUUGUAUUUAGUUA | 0.972 ± 0.03 | 0.0327 ± 0.0075
66 | UCCUCCAACAGCUUGGAUAGUAUUUAGUUA | 1.3 ± 0.053 | 0.0527 ± 0.0092
